Data taken from PubChem BioAssay AID1347073 (National Center for Advancing Translational Sciences (NCATS), 2019).
About 200 (0.44%) of roughly 45,000 compounds were called active. Not shown: some 7% with an inconclusive outcome. Calls follow the shape of the dose curve; as a rule, active = well fitted activation curve with a large enough effect; inconclusive = small, poorly fitted or top-dose-only effect; inactive = no such curve, though single readings can be large or run the other way. The list shows a part of the results.

experiment: qHTS of TDP-43 Inhibitors: NCGC Sytravon Library Screen; details: yeast TDP-43 toxicity rescue, BacTiter-Glo growth, 24 h; series mostly up to 46.1 µM; growth rescue (activation): at the top concentration; also: 0% is about no effect; nearly all actives have a fitted effect of over 55% in size
How it was run: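 TDP-43-expressing yeast, pregrown in raffinose, seeded at OD600 0.02 in galactose medium with compound for 24 hr at 30 deg C. Growth read by BacTiter-Glo luminescence, so rescue of toxicity appears as activation.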

Row | SMILES | growth rescue (activation)
1 | COc1ccc(C2=NN(C(C)=O)C(c3cccs3)C2)cc1OC (configuration not stated) | inactive: -0.982%
2 | COCCN(CC(=O)Nc1cccc(C)c1C)C(=O)c1ccc2c(c1)OCO2 | inactive: 14.1%
3 | C/C(=N\Nc1ccc(C(F)(F)F)cn1)c1ccc(S(=O)(=O)NCc2ccco2)cc1 | inactive: -12.5%
4 | Cc1ccc(NC(=O)COC(=O)c2cccc3c(=O)c(C)c(-c4ccccc4)oc23)cc1 | inactive: -0.863%
5 | COCCNC(=O)C1CCCN(C(=O)COCc2ccccc2)CC1 (configuration not stated) | inactive: -6.47%
6 | CCN(CC)CCCNc1nc2ccccc2c2nc(-c3ccncc3)nn12 | inactive: -10.2%
7 | O=C(NCC1CC1)C1Cc2c(-c3ccc(Cl)cc3)ccnc2O1 (configuration not stated) | inactive: 18.6%
8 | Cc1ccc(NC(=O)CCC(=O)c2ccc(F)cc2)cc1Cl | inactive: 14.7%
9 | O=C(COC(=O)C12CC3CC(CC(Cl)(C3)C1)C2)N1CCCCC1 | inactive: -6.22%
10 | NC(=O)c1nsc(C(=O)N(c2cccc(F)c2)C(C(=O)NC2CCCC2)c2ccc(O)cc2)c1N (configuration not stated) | inactive: 13.1%
11 | CCOC(=O)C1(CCCc2ccccc2)CCN(C(=O)c2cnc(C)cn2)CC1 | inactive: -5.06%
12 | CC(C)N1C(=O)NC2(c3ccccc3)N(C)C(=O)N(C)C12c1ccccc1 (configuration not stated) | inactive: -1.15%
13 | Cc1cccc(C(=O)C2CCN(S(=O)(=O)c3ccc(C(=O)O)cc3)CC2)c1 | inactive: 8.85%
14 | CCC(C(=O)NCc1ccncc1)c1ccccc1 (configuration not stated) | inactive: -10.9%
15 | Cc1nc2ccc(NC(=S)N3CCC(C)CC3)cc2nc1C | inactive: 9.63%
16 | Cc1cccc(Cc2nnc(CCC(=O)N(C)C3CCOC3)o2)c1 (configuration not stated) | inactive: 8.42%
17 | COc1ccccc1C(=O)Nc1nnc([C@@H]2C[C@H](O)[C@@H](CO)O2)s1 | inactive: -0.326%
18 | COc1ccc(N(C(=O)c2ccco2)C(C(=O)NC2CCCC2)c2ccccc2)cc1 (configuration not stated) | inactive: 9.52%
19 | COc1ccc(OC)c(NC(=O)CC2C(=O)NCCN2C(=O)c2ccccc2)c1 (configuration not stated) | inactive: 12%
20 | COc1ccc(Cn2c(-c3ccccc3)nc3c(c(=O)c4ccccc4n3C)c2=O)cc1 | inactive: 13.1%
21 | O=C(Cc1sc(Nc2ccccc2)nc1-c1ccccc1)NCc1ccccc1 | inactive: 6.95%
22 | CN(c1ccccc1)S(=O)(=O)c1ccc(C(=O)Nc2nnc(C3CC3)s2)cc1 | inactive: 22.1%
23 | COc1ccc(-c2nn(CCC(=O)O)cc2/C=N/NC(N)=S)cc1 | inactive: 10.5%

Row | SMILES | growth rescue (activation)
24 | CCOC(=O)C1C(c2ccc(C(=O)O)cc2)NC(=O)NC1(O)C(F)(F)F (configuration not stated) | inactive: 0.53%
25 | COc1ccc([N+](=O)[O-])cc1C(=O)Nc1ccc(OCC(=O)N2CCOCC2)cc1 | inactive: 17.2%
26 | O=P(Cc1ccncc1)(c1ccccc1)c1ccccc1 | inactive: 12.3%
27 | COc1ccc(/C=C2/C(=O)N(c3nc4ccccc4s3)N=C2CSc2ccc(Cl)cc2)cc1 | inactive: -18.3%
28 | O=C(Nc1ccc(Cl)cc1)C1CCN(C(=O)c2cccs2)CC1 | inactive: 18.6%
29 | O=C(CC(Cc1ccccc1)C(=O)O)Nc1ccc(Cl)c(Cl)c1 (configuration not stated) | inactive: -15.8%
30 | COc1cc([N+](=O)[O-])cc([N+](=O)[O-])c1NC(=O)N1CCOCC1 | inactive: 22.1%
31 | CCOc1ccc(S(=O)(=O)Nc2ccccc2C(=O)N2CCOCC2)cc1 | inactive: 4.64%
32 | Cc1cccnc1NC(=O)C(c1ccccc1)c1ccccc1 | inactive: -2.51%
33 | COc1cc2c(cc1OC)CN(CC(=O)Nc1ccc(F)cc1F)CC2 | inactive: 8.27%
34 | C=CCc1cc(C=O)cc(OCC)c1O | inactive: -1.84%
35 | CCOC(=O)C1=C(C)NC(=S)N(C=O)C1c1ccccc1 (configuration not stated) | inactive: 5.98%
36 | NC(=O)c1nn(-c2ccccc2)nc1NC(=O)CN1CCCC1 | inactive: 26.2%
37 | O=C(NCCCN1CCc2ccccc2C1)C1CCN(S(=O)(=O)N2CCC3(CC2)OCCO3)CC1 | inactive: -2.99%
38 | CCN(C(=O)CN1C(=O)c2ccccc2Sc2ccc(C(=O)OC)cc21)c1cccc(C)c1 | inactive: 4.32%
39 | CCCn1nnc(NC(=S)NC(=O)c2cccs2)n1 | inactive: -2.77%
40 | Cc1nccc2[nH]c(=O)c(C(=O)NC3CCCCC3C)cc12 (configuration not stated) | inactive: 12.5%
41 | COC(=O)[C@H](CC(C)C)NC(=O)NC1CCCc2ccccc21 (some centres not stated) | inactive: 4.41%
42 | Cc1cc(NC(=O)c2ccccc2)n(-c2ccccc2)n1 | inactive: -2.31%
43 | O=C(CCC(=O)c1ccc(Br)cc1)Nc1cccc(C(F)(F)F)c1 | inactive: -8.31%
44 | CCOC(=O)Cn1nc(C)c(NC(=O)c2ccc(Br)o2)c1C | inactive: -9.18%
45 | CCCCn1c(SCC(=O)NC2CCS(=O)(=O)C2)nc2cc(S(N)(=O)=O)ccc21 (configuration not stated) | inactive: 0.693%
46 | CN(C(=O)CSc1nc2ccccc2c(=O)n1C)C1CCS(=O)(=O)C1 (configuration not stated) | inactive: 8.19%

Row | SMILES | growth rescue (activation)
47 | Cc1ccc(C)c(SCC(=O)OCC(=O)NCc2ccccc2)c1 | inactive: 19.5%
48 | O=C(/C=C/c1ccc(F)cc1)Nc1cccc(S(=O)(=O)Nc2cccc(C(F)(F)F)c2)c1 | inactive: 19.9%
49 | C(=N\N1CCN(c2ccccn2)CC1)/C1=C(N2CCOCC2)C(=C/c2ccccc2)/CC1 | inactive: 1.54%
50 | O=C1N=c2ccccc2=C1c1sc(=S)n(CC2CCCO2)c1O (configuration not stated) | inactive: 22.1%
51 | CCOC(=O)Cn1nc(NC(=O)COc2ccc(F)cc2)cc1C | inactive: 10.5%
52 | CCCN(Cc1cc2ccccc2[nH]c1=O)C(=O)c1cccc([N+](=O)[O-])c1 | inactive: 1.81%
53 | Cc1ccc(OCC(=O)Nc2ccc(N3CCN(C(=O)c4ccc(C)cc4)CC3)cc2)cc1 | inactive: -5.53%
54 | Cc1ccc[n+](-c2nc3ccccc3nc2[N-]S(=O)(=O)c2ccccc2)c1 | inactive: 8.31%
55 | O=C(Nc1ccc(Cl)cc1)Nc1ccc(Br)cn1 | inactive: 2.73%
56 | COc1cc(C(=O)COC(=O)c2ccncc2)cc(OC)c1OC | inactive: -6.55%
57 | CCC(=O)N1CCC1(C)C(=O)Nc1ccc(OC)c(OC)c1 (configuration not stated) | inactive: 6.4%
58 | c1ccc(-c2cn3nc(-c4ccccc4)cnc3n2)cc1 | inactive: 6.61%
59 | Cc1cccc(NC(=O)CSc2nc(C3CC3)nc3ccccc23)c1 | inactive: 19.1%
60 | Cc1occc1C(=O)NC(C)C12CC3CC(CC(C3)C1)C2 (configuration not stated) | inactive: -64.4%
61 | CCCNC(=O)Cn1c(=O)/c(=C/c2ccc(-c3ccc([N+](=O)[O-])cc3)o2)s/c1=C\C(=O)C(C)(C)C | inactive: 11.9%
62 | Cc1ccc2[nH]c(CNC(=O)C3CCCCC3)cc2c1 | inactive: 18.7%
63 | O=C(Nc1ccc(N2C(=O)c3cccc4cccc(c34)C2=O)cc1)c1ccc(N2CCCCC2)c([N+](=O)[O-])c1 | inactive: -1.52%
64 | Cc1ccc(N2C(=O)CC(c3c[nH]c4ccccc34)C2=O)cc1 (configuration not stated) | inactive: 22%
65 | O=C(COC(=O)c1ccc[nH]c1=O)NCCC1=CCCCC1 | inactive: 3.35%
66 | Cc1ccc(OCC(=O)Nc2nnc(-c3ccco3)s2)cc1 | inactive: 19.3%
67 | COCC(C)n1c(SCC(=O)NC2CCCCC2C)nc2ccccc2c1=O (configuration not stated) | inactive: -4.94%
